# Experimental data: PubChem BioAssay AID1345083 (National Center for Advancing Translational Sciences (NCATS), 2018)
# In all, about 94,000 compounds went through this assay and about 6,200 (6.6%) were called active. Inconclusive means that the source gave no clear call. Such entries were picked first, then a sample of the others. The call rests on the fitted dose curve; in most records, active means well fitted inhibition curve with a large enough effect; inconclusive means small, poorly fitted or top-dose-only effect; inactive means flat fitted curve, though single readings scatter. A potency beside an inconclusive call is a rough fit, not a confirmed value.
# Assay: Cytotoxic Profiling in HEK 293 Cell Line of Diverse Libraries Using Quantitative High-Throughput Screening; further: nearly all actives have a fitted effect of over 60% in size
# Conditions: HEK 293 viability, ATP luminescence (CellTiter-Glo), 48-72 h; series mostly up to 115 µM
# Procedure, shortened: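 Cytotoxicity was scored by loss of ATP-coupled luminescence (CellTiter-Glo) in HEK 293 cells. Compound treatment ran 48 or 72 hr at 37 degree Celsius, 5% CO2, 95% humidity.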
# Potency means the concentration at half of the fitted maximal effect; tags describe the fitted curve by direction and shape.
row,Structure (SMILES),Potency
1,O=C(N[C@@H]1CN(Cc2ccc(Cl)c(F)c2)C[C@H]1CO)C1CCC1,"inconclusive: 89.1 µM [inhibitor, single point]"
2,CC(=O)Nc1ccc(CN2CCCCC23Cc2ccccc2CN(C(=O)C(C)C)C3)cc1 (stereo not given),"inconclusive: 79.4 µM [inhibitor, single point]"
3,CCOc1ccc(NC(=O)CCC2CCCN(S(=O)(=O)c3ccc(F)cc3)C2)cc1 (stereo not given),"inconclusive: 8.91 µM [inhibitor, full curve, poor fit]"
4,O=[S+]([O-])(NC1CN(c2ccnc3ccnn23)C1)c1ccccc1,inactive
5,CC(C)(C)c1nnc2ccc(C(=O)NCc3ccc(F)c(F)c3)cn12,inactive
6,Cc1ccc(NC(=O)Cn2c(-c3ccc(F)cc3)nc(C)c(CCO)c2=O)c(C)c1,"inconclusive: 20 µM [inhibitor, full curve, poor fit]"
7,O=C(NCCc1ccc(Cl)cc1)c1cc(Br)cn2ccnc12,inactive
8,COc1cccc(-c2cc(C3CCN(C(=O)Nc4ccccc4C(F)(F)F)CC3)[nH]n2)c1,active: 22.4 µM
9,CN1CCC(NC(=O)C2(C)CCCc3cnc(NCc4ccccc4)nc32)CC1 (stereo not given),"inconclusive: 89.1 µM [inhibitor, partial curve]"
10,CN(C)CCNC(=O)c1ccc2c(c1)C1(CCN(CC3CC3)C1)CN2Cc1ccccc1 (stereo not given),active: 44.7 µM
11,O=C(Cc1c[nH]c2ncc(-c3ccccc3)cc12)NCc1ccncc1,"inconclusive: 100 µM [inhibitor, partial curve, poor fit]"
12,COc1ccccc1CN[C@H]1CC(C)(C)[C@@H]2C[C@@](C)(O)CC[C@]12CCC(=O)N1CCOCC1,"inconclusive: 70.8 µM [inhibitor, partial curve, poor fit]"
13,COCCNC(=O)Cc1c[nH]c2ncc(-c3ccccc3C)cc12,"inconclusive: 79.4 µM [inhibitor, partial curve]"
14,CC(C)(C)CC(=O)N1CCC(O)(c2csc(CN3CCc4ccccc4C3)n2)CC1,active: 70.8 µM
15,COc1ccc(-c2nn(-c3ccccc3)cc2CN2CCN(C)C(C)C2)c(F)c1 (stereo not given),"inconclusive: 89.1 µM [inhibitor, single point]"
16,O=[S+]1([O-])NC2(CCN(Cc3ccc(C(F)(F)F)cc3)CC2)CNc2ccccc21,"inconclusive: 31.6 µM [inhibitor, full curve, poor fit]"
17,CCNc1cc(N2CCC(CCC(=O)NC3CCCC3)CC2)ncn1,inactive
18,Cc1ccccc1C(=O)N1CCC(C(=O)N2CCC(c3nc4ncccc4[nH]3)CC2)CC1,inactive
19,C[C@]1(CO)[C@H]2Cc3sc(NC(=O)c4ccco4)nc3[C@@H](CC(=O)N3CCC(C(N)=O)CC3)[C@]2(C)CC[C@H]1O,inactive
20,CCc1ccccc1Nc1nc(-c2cccc(OC)c2OC)no1,"inconclusive: 35.5 µM [inhibitor, partial curve]"
21,CC(=O)N1CCN(C(=O)c2cc(C(C)(C)C)nc3c2cnn3C)CC1,inactive
22,O=C(NCc1ccc(F)c(F)c1)c1ccc2oc(-c3ccccn3)nc2c1,"inconclusive: 56.2 µM [inhibitor, partial curve, poor fit]"

row,Structure (SMILES),Potency
1,O=C(O)c1ccc(CN2C[C@@H]3OCC(=O)N(CC4CC4)[C@@H]3C2)cc1,inactive
2,O=C(Nc1ccc(Cl)cc1Cl)c1cc2cccnn2n1,"inconclusive: 126 µM [inhibitor, single point]"
3,O=C(NC1CCCCC1)N[C@H]1[C@H](O)[C@@H](N2CCC(Cc3ccccc3)CC2)[C@@H]2OC[C@H]1O2,"inconclusive: 56.2 µM [inhibitor, partial curve, poor fit]"
4,COc1cccc(-c2noc(Nc3cc(C)cc(C)c3)n2)c1OC,"inconclusive: 50.1 µM [inhibitor, partial curve, poor fit]"
5,CC1=NS(=O)(=O)N(Cc2ccccc2F)C=C1C(=O)O,inactive
6,COc1ccc(-c2[nH]nc3ncc(-c4ccc(F)cc4OC)nc23)c(C)c1,"inconclusive: 35.5 µM [inhibitor, partial curve, poor fit]"
7,COCC(=O)NC1CCN(c2ccccc2)C1=O (stereo not given),inactive
8,Cc1ccc(NC(=O)N[C@H]2C[C@@H](c3nc(-c4ccccn4)no3)N(C)C2)cc1,"inconclusive: 25.1 µM [inhibitor, full curve, poor fit]"
9,CNC(=O)CCn1ncc2cc(OC3CCc4cccc(-c5cnn(C)c5)c43)ccc21 (stereo not given),active: 50.1 µM
10,COc1cccc(C(=O)N2CCC(N3CCCNC3=O)CC2)c1,inactive
11,O=C(NC1CCCC1)c1cc2n(n1)CC(c1ccc3c(c1)OCO3)OC2 (stereo not given),"inconclusive: 89.1 µM [inhibitor, single point]"
12,N#Cc1ccc(C(=O)N2CCC3(CC2)CN(c2cccc(F)c2)C3c2ccccc2)cc1 (stereo not given),"inconclusive: 25.1 µM [inhibitor, full curve, poor fit]"
13,CCCOc1c(CN2CCCNCC2)cc(Cl)cc1OC,"inconclusive: 89.1 µM [inhibitor, single point]"
14,O=C(Nc1ccccc1F)N1CC2CCC(C1)N2Cc1cccc(-c2cccnc2)c1,"inconclusive: 56.2 µM [inhibitor, partial curve, poor fit]"
15,O=C(NC1CCN(c2cc(-c3ccc(F)cc3)[nH]n2)C1)c1ccccc1F (stereo not given),"inconclusive: 39.8 µM [inhibitor, partial curve]"
16,O=C(Nc1cccc(-c2nnc3n2CCCC3)c1)C1CC1,inactive
17,CC(=O)Nc1ccc(CN2CCOC[C@H]2c2ncc(-c3ccc(F)cc3F)[nH]2)cc1,"inconclusive: 126 µM [inhibitor, single point]"
18,O=C(N[C@H]1CCN2C(=O)c3cc(-c4ccsc4)ccc3NC(=O)[C@H]12)c1cccc(F)c1,inactive
19,CCc1noc(-c2cn(C3CCN(C(=O)c4sccc4C)C3)nn2)n1 (stereo not given),inactive
20,O=C(NCc1ccccc1)c1nc2c(o1)CCN(Cc1ccc(F)cc1)CC2,"inconclusive: 50.1 µM [inhibitor, partial curve, poor fit]"
21,O=C(C1CCN(c2cn[nH]c(=O)c2)C1)N1CCc2ccccc2C1 (stereo not given),inactive
22,CC1=C[C@@H](CNC(=O)C2CC2)[C@H](C(C)C)C[C@H]1Cc1nc2ccccc2n1C,active: 44.7 µM

row,Structure (SMILES),Potency
1,C[C@H]1[C@@H]2[C@@H](O)C([C@H](C)C(=O)NC3CCCCC3)CC[C@@]2(C)CC[C@@H]1NC(=O)c1ccccn1 (stereo not given in full),"inconclusive: 56.2 µM [inhibitor, partial curve, poor fit]"
2,Cc1ccc(CN2CCc3c(cc(C(=O)N4CCCN(C)CC4)n3C)C2)cc1,"inconclusive: 89.1 µM [inhibitor, single point]"
3,Cc1ccc(NC(=O)Cn2c(-c3ccccc3)nc(C)cc2=O)cc1,"inconclusive: 7.08 µM [inhibitor, full curve]"
4,CCOc1ccc(NC(=O)C2CN(S(C)(=O)=O)CC23CCCCC3)cc1 (stereo not given),"inconclusive: 44.7 µM [inhibitor, partial curve, poor fit]"
5,CCOc1ccccc1C(=O)N1CCC(Oc2ncccc2C(=O)N(C)C)C1 (stereo not given),inactive
6,COCCOCc1nc(C2CCCN2C(=O)NCc2ccc(OC)cc2)no1 (stereo not given),inactive
7,COc1ccc(F)cc1S(=O)(=O)N1CCCC(Cn2c(C3CC3)nc3cccnc32)C1 (stereo not given),"inconclusive: 79.4 µM [inhibitor, single point]"
8,Cc1cc(S(=O)(=O)N2CCC(Oc3ccc(C(N)=O)cn3)CC2)ccc1Cl,"inconclusive: 50.1 µM [inhibitor, partial curve, poor fit]"
9,O=C(NCCc1ccccn1)C1CC(=O)N(c2n[nH]c3cc(Br)ccc23)C1 (stereo not given),"inconclusive: 28.2 µM [inhibitor, partial curve, poor fit]"
10,OCC1(CN2CCCC2)CCN(Cc2c(Cl)cccc2Cl)CC1,"inconclusive: 79.4 µM [inhibitor, partial curve, poor fit]"
11,COc1ccc(OC)c2nc(-c3cccc(Cl)c3)c(CN3CCCC(O)C3)cc12 (stereo not given),"inconclusive: 56.2 µM [inhibitor, partial curve, poor fit]"
12,COc1ccccc1CC(=O)N1CCCc2ncc(C(=O)NCCC(C)C)cc21,"inconclusive: 126 µM [inhibitor, single point]"
13,CC1(C)[C@H](Cc2cc(-c3ccc(F)cc3)on2)C[C@@H]1NCc1cccnc1,"inconclusive: 63.1 µM [inhibitor, partial curve, poor fit]"
14,N#CC1CCN(C(=O)c2nc3cccnc3n(Cc3ccccc3)c2=O)CC1,inactive
15,O=C(c1ccc(F)c(F)c1)N1CCC[C@H]1c1nc(-c2ccccc2Cl)no1,"inconclusive: 89.1 µM [inhibitor, single point]"
16,COc1ccc(CNC(=O)c2cc(-c3ccc(F)cc3)nc3c2cnn3C)cc1,active: 44.7 µM
17,CC(=O)Nc1ccc(NC(=O)c2c(C)oc3ccn(Cc4ccc(F)cc4)c(=O)c23)cc1,"inconclusive: 15.8 µM [inhibitor, full curve, poor fit]"
18,CNC(=O)c1cc2cc(-c3c(C)noc3C)nc(-c3cccnc3OC)c2o1,"inconclusive: 44.7 µM [inhibitor, partial curve, poor fit]"
19,Cc1cc(=O)n(CC(=O)Nc2cccc(Cl)c2)c(N(C)Cc2ccccc2)n1,"inconclusive: 20 µM [inhibitor, partial curve, poor fit]"
20,COc1ccc(C(=O)NCCc2ncc(C)n2Cc2ccc(F)cc2)cn1,"inconclusive: 22.4 µM [inhibitor, full curve, poor fit]"
21,Cc1ccc(S(=O)(=O)N2CCN(C3CCN(Cc4cccnc4)C3=O)CC2)cc1 (stereo not given),"inconclusive: 50.1 µM [inhibitor, partial curve, poor fit]"
